# In publication PMC4336329 (PLoS ONE, 2015):
# Hit rate of the full screen: of about 310,000 compounds, about 2,200 (0.71%) showed an effect of 50% or more. The effect is printed as a negative number. The list shows a part of the results.
# Target: human ether-à-go-go-related gene (hERG) potassium channel (human, UniProt Q12809)
# Experiment: primary screen, population patch clamp on CHO cells stably expressing hERG
# Sequence of human ether-à-go-go-related gene (hERG) potassium channel (Q12809 whole entry, looked up): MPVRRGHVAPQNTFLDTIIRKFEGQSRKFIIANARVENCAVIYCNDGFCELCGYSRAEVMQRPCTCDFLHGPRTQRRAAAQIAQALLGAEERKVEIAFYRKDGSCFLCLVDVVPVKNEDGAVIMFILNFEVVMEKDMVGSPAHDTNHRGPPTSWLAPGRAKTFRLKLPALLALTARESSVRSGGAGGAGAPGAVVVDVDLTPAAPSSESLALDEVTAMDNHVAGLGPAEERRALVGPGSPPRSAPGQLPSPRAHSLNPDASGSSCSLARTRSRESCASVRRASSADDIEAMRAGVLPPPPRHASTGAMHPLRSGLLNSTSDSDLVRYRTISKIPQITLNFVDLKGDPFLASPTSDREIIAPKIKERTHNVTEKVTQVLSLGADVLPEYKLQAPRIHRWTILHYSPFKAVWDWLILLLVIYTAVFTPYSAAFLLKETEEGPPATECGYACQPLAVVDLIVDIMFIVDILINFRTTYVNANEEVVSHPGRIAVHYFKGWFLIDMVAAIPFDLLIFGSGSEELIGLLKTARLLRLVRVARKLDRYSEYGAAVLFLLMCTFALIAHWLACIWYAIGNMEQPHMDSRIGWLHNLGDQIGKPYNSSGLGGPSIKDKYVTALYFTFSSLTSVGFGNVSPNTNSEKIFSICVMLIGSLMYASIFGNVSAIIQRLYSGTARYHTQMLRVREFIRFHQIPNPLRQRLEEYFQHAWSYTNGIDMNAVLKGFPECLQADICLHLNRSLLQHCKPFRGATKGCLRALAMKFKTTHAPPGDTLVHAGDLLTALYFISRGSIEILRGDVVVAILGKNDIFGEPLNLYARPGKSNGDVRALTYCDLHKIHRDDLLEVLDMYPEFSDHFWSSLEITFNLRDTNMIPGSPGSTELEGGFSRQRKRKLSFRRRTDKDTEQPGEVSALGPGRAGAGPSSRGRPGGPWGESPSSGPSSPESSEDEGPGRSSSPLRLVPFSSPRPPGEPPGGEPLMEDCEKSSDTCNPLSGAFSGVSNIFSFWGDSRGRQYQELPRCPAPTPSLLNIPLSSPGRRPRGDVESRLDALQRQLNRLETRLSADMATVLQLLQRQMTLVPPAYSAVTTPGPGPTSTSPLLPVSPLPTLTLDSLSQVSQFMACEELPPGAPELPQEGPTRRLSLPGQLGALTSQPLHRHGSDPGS
row,Structure (SMILES),"hERG current change (%, negative = inhibition) at 1uM [%]"
1,CN1CCN(c2ccc3nccnc3c2)CC1,9.48
2,O=C(CSc1nccn1Cc1ccccc1)NCc1ccccc1,9.71
3,O=C(NC1CSCC1OC(=O)c1ccccc1)c1ccccc1 (stereo not shown),0.285
4,CC(/C=N/NC(=O)C(O)c1ccccc1)=C\c1ccccc1 (stereo not shown),-2.26
5,Cc1c(N2C(=O)/C(=C/C3CC=CCC3)SC2=S)c(=O)n(-c2ccccc2)n1C (stereo not shown),6.64
6,Cn1c(Cc2ccc3c(c2)OCO3)nnc1SCC(=O)NC1CCCC1,9.47
7,CC(CN1CCCCC1)c1ccccc1.O=C(O)C(=O)O (stereo not shown),14.1
8,CCOc1ccc(NC(=O)CNC(=O)c2nn(-c3ccc(OC)cc3)c(=O)c3ccccc23)cc1,15.7
9,O=C(NCCCNCc1ccccc1)c1ccc(/C=N/O)nc1,6.96
10,CCN(CC(=O)Nc1c(F)cccc1F)C(=O)CNC(=O)c1ccc2c(c1)OCO2,-3.06
11,Cc1cn(C(=O)C(C)N2C(=O)c3ccccc3C2=O)c(C)n1 (stereo not shown),6.51
12,Cn1c(N)c(S(=O)(=O)NCc2ccc(Cl)cc2)c(=O)n(C)c1=O,20.9
13,Cc1nnc(SCC(=O)N2CCOCC2)n1C,10.1
14,COc1ccc(NC(=O)NC(C)c2ccncc2)cc1OC (stereo not shown),2.22
15,CN(CCOc1ccccc1)C(=O)c1ccc(OC2CCN(C(=O)C3CC3)CC2)cc1,3.45
16,CN(Cc1ccccc1)C(=O)COC(=O)c1cc(-c2ccc(Cl)s2)nc2ccccc12,-17.9
17,O=C(Nc1ccc(CN2CCCCC2)cc1)c1cccc(Br)c1,-17.8
18,CCOc1ccc(CCNC(=O)CSc2cc(=O)n(C)c3cc(Cl)ccc23)cc1OCC,11.6
19,COc1ccc(C(=O)Cn2c(NCCCl)nc3ccccc32)cc1.Cl,4.71
20,CCOc1ccc(C2CC(=O)NC(SC)=C2C#N)cc1 (stereo not shown),14.3
21,COc1ccc(OC)c(C(=O)c2ccc(C(=O)O)cc2)c1,-4.18
22,C[C@@H]1CC=C[C@H]2[C@H]1C(=O)N(Cc1ccccc1)[C@H]2c1ccc2ccccc2c1/C=C/c1ccccc1,12.4
23,Cc1ccc(S(=O)(=O)NCc2ccncc2)cc1C,11.9

row,Structure (SMILES),"hERG current change (%, negative = inhibition) at 1uM [%]"
1,C/C(N)=C(/C#N)C(=O)CSc1nnc(Cc2ccccc2F)n1N,9.15
2,O=C1CSC(c2ccccc2)N1c1ccc([N+](=O)[O-])cc1 (stereo not shown),3.28
3,Cc1ccc(NC(=O)C2CCCN(C(=O)c3ccc(Cl)cc3)C2)cc1S(=O)(=O)N1CCOCC1 (stereo not shown),2.85
4,O=C(CSCc1ccc(Cl)cc1)Nc1ccc(-c2nnc(-c3ccccc3)o2)cc1,4.79
5,Cc1c(C)c(C)c(C(=O)C2CCN(c3ccc([N+](=O)[O-])cn3)CC2)c(C)c1C,10.1
6,Cc1nc2ccccc2nc1N1CCC(C)CC1,3.15
7,CCC(=O)N1CCN(c2ccc(NC(=O)c3ccccc3)cc2)CC1,5.42
8,COc1ccc(C(=O)NCCCCc2ccccc2)cc1,5.08
9,CCCCOc1ccc(C2CC(=O)N(C)C2=O)cc1 (stereo not shown),-1.98
10,COc1ccc(C(=O)c2c3ccc([N+](=O)[O-])cc3[n+]([O-])n2CCCC(N)=O)cc1,-5.98
11,CCN(CC)S(=O)(=O)c1cccc(N=NC2=C(O)CCCC2=O)c1,-2.57
12,O=C(CCn1c(=O)oc2ccccc21)NCc1cccs1,17.2
13,COc1ccc(C)cc1NC(=O)C(NC(=O)c1cc(OC)c(OC)c(OC)c1)C(C)C (stereo not shown),13.5
14,CCc1nnc(NC(=O)CSc2nc3c(cc2C#N)CCC3)s1,5.06
15,CCOC(=O)CN1C(=O)C(=O)N(Cc2cccc(C)c2)C1=O,11.8
16,COc1ccc(COCC(O)CN2CCCC(C(F)(F)F)C2)cc1 (stereo not shown),9.5
17,Cc1cccc(OCCn2c(=S)[nH]c3ccccc32)c1,12.6
18,Cc1ccc(-c2nc(N)sc2C)cc1,-9.43
19,COc1ccc(CC(=O)N2CCC3(CC2)NCCc2[nH]cnc23)cc1,13.5
20,COc1ccc(N2C(=O)CC(Sc3nnc(-c4ccccc4F)n3C)C2=O)cc1 (stereo not shown),11.3
21,COc1ccc(-c2noc(N3CCC(C(=O)Nc4cc(OC)ccc4OC)CC3)n2)cc1,14
22,Cc1ccc(NC(=O)CCN2C(=O)CSC2=O)cc1,1.74
23,CCc1ccccc1NC(=S)N1CCNC(=O)C1CC(=O)OC (stereo not shown),10.5
